According to paper PMC5892938:
This is one part of the list. At the low end of the ranking the order means little.

What follows are sequences tested against GST-SBP-SLBP (stem-loop binding protein) (UniProt Q14493) (assay: targeted RNA Bind-n-Seq). Conditions: RBNS binding buffer: 25 mM Tris pH 7.5, 150 mM KCl, 3 mM MgCl2, 0.1% Tween, 0.5 mg/mL BSA, 1 mM DTT; 27 nM protein, 750 pM RNA pool; temperature not stated; high values mean tight binding.
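Also: DESeq read counts versus GST-SBP nonspecific binding control pulldown.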

Sequence	binding signal (log2 fold change)
GGUCACGUCUCAAUCAACUCACUCGAGGGGGGGAAAACCCCUUUACCCUCAUUCUCAACAGCUCGCAGUCAAG	0.248
GGUCACGUCUCAAUCAACUCAAUCCCAGGAGUUUGCUCCUGCAAUUUCAACAGCUCGCAGUCAAG	-0.0397
GGUCACGUCUCAAUCAACUCAGUUUCCAGGGAAAACCCUGGCUUUUUCAACAGCUCGCAGUCAAG	-0.195
GGUCACGUCUCAAUCAACUCUUUCCCCAGGGAAAACCCUGGUAGUCUCAACAGCUCGCAGUCAAG	-0.0991
GGUCACGUCUCAAUCAACUCUAUAGAGGGGGGGAAAACCCCUUUGCCCUCACAUUCAACAGCUCGCAGUCAAG	-0.274
GGUCACGUCUCAAUCAACUCAUUCCCAGGAGUUUCCUCCUGCUUUUUCAACAGCUCGCAGUCAAG	0.0387
GGUCACGUCUCAAUCAACUCUACUUCAGGAGUUUACUCCUGUUAAUUCAACAGCUCGCAGUCAAG	0.111
GGUCACGUCUCAAUCAACUCAUGUCCAGGAGUUUCCUCCUGUUUAUUCAACAGCUCGCAGUCAAG	-0.108
GGUCACGUCUCAAUCAACUCUAUUUCCAGGGAAAGCCCUGGCAAUUUCAACAGCUCGCAGUCAAG	-0.1
GGUCACGUCUCAAUCAACUCAGUUCCAGGAGUUUACUCCUGCUUUUUCAACAGCUCGCAGUCAAG	-0.248
GGUCACGUCUCAAUCAACUCAACUCCAGGAGUUUGCUCCUGCUAUCUCAACAGCUCGCAGUCAAG	0.16
GGUCACGUCUCAAUCAACUCUAUGUCAGGAGUUUUCUCCUGUUUACUCAACAGCUCGCAGUCAAG	-0.0305
GGUCACGUCUCAAUCAACUCAUUAGAGGGGGGGAAAACCCCUUUGCCCUCCAAUUCAACAGCUCGCAGUCAAG	0.00165
GGUCACGUCUCAAUCAACUCUAUCCCCAGGGAAAUCCCUGGCUAUCUCAACAGCUCGCAGUCAAG	0.27
GGUCACGUCUCAAUCAACUCUCCAGAGGGGGGGAAAACCCCUUUGCCCUCCAUUUCAACAGCUCGCAGUCAAG	0.536
GGUCACGUCUCAAUCAACUCAUUUCCAGGAGUUUCCUCCUGCAUUUUCAACAGCUCGCAGUCAAG	0.00453
GGUCACGUCUCAAUCAACUCAUCCCCCAGGGAAAACCCUGGCAAACUCAACAGCUCGCAGUCAAG	0.288
GGUCACGUCUCAAUCAACUCUUUUCCAGGAGUUUCCUCCUGUAUACUCAACAGCUCGCAGUCAAG	0.0199
GGUCACGUCUCAAUCAACUCUUCGUCCAGGGAAAUCCCUGGUAUUCUCAACAGCUCGCAGUCAAG	-0.114
GGUCACGUCUCAAUCAACUCAUUUUCAGGAGUUUGCUCCUGCUUACUCAACAGCUCGCAGUCAAG	0.0149
GGUCACGUCUCAAUCAACUCAUACGAGGGGGGGAAAACCCCUUUACCCUCACCUUCAACAGCUCGCAGUCAAG	0.226
GGUCACGUCUCAAUCAACUCAUCAGAGGGGGGGAAAACCCCUUUGCCCUCCAAUUCAACAGCUCGCAGUCAAG	0.23
GGUCACGUCUCAAUCAACUCUAUCUCCAGGGAAAUCCCUGGCUUUUUCAACAGCUCGCAGUCAAG	-0.198
GGUCACGUCUCAAUCAACUCAACUUCAGGAGUUUCCUCCUGCAUAUUCAACAGCUCGCAGUCAAG	0.0361

Sequence	binding signal (log2 fold change)
GGUCACGUCUCAAUCAACUCUUUUUCCAGGGAAACCCCUGGUAAUUUCAACAGCUCGCAGUCAAG	0.0358
GGUCACGUCUCAAUCAACUCUACUCCAGGAGUUUCCUCCUGUUAACUCAACAGCUCGCAGUCAAG	-0.0843
GGUCACGUCUCAAUCAACUCUUCGCCCAGGGAAACCCCUGGUUUUCUCAACAGCUCGCAGUCAAG	0.129
GGUCACGUCUCAAUCAACUCAUUUCCAGGAGUUUCCUCCUGUAAUCUCAACAGCUCGCAGUCAAG	0.0272
GGUCACGUCUCAAUCAACUCCCACGAGGGGGGGAAAACCCCUUUACCCUCAUUCUCAACAGCUCGCAGUCAAG	-0.295
GGUCACGUCUCAAUCAACUCACUAGAGGGGGGGAAAACCCCUUUACCCUCCGCAUCAACAGCUCGCAGUCAAG	0.144
GGUCACGUCUCAAUCAACUCAAACGAGGGGGGGAAAACCCCUUUACCCUCAAACUCAACAGCUCGCAGUCAAG	0.0653
GGUCACGUCUCAAUCAACUCUAUCGAGGGGGGGAAAACCCCUUUACCCUCAACCUCAACAGCUCGCAGUCAAG	-0.355
GGUCACGUCUCAAUCAACUCUAUAGAGGGGGGGAAAACCCCUUUGCCCUCGAAAUCAACAGCUCGCAGUCAAG	0.0494
GGUCACGUCUCAAUCAACUCCAUAGAGGGGGGGAAAACCCCUUUGCCCUCCAAUUCAACAGCUCGCAGUCAAG	-0.196
GGUCACGUCUCAAUCAACUCAACUCCAGGAGUUUACUCCUGUAUAUUCAACAGCUCGCAGUCAAG	-0.0282
GGUCACGUCUCAAUCAACUCAUCGCCCAGGGAAAGCCCUGGUUUUCUCAACAGCUCGCAGUCAAG	-0.0339
GGUCACGUCUCAAUCAACUCUAUGUCAGGAGUUUUCUCCUGUUUAUUCAACAGCUCGCAGUCAAG	-0.216
GGUCACGUCUCAAUCAACUCUAUUCCCAGGGAAACCCCUGGUUAACUCAACAGCUCGCAGUCAAG	-0.34
GGUCACGUCUCAAUCAACUCUACGCCAGGAGUUUUCUCCUGUUUUUUCAACAGCUCGCAGUCAAG	-0.0966
GGUCACGUCUCAAUCAACUCAUACGAGGGGGGGAAAACCCCUUUACCCUCACUUUCAACAGCUCGCAGUCAAG	0.0472
GGUCACGUCUCAAUCAACUCAAUCCCCAGGGAAAACCCUGGUUUUCUCAACAGCUCGCAGUCAAG	-0.154
GGUCACGUCUCAAUCAACUCUUUUCCAGGAGUUUACUCCUGUAAUCUCAACAGCUCGCAGUCAAG	-0.234
GGUCACGUCUCAAUCAACUCAUUUCCCAGGGAAAGCCCUGGCAAUCUCAACAGCUCGCAGUCAAG	0.289
GGUCACGUCUCAAUCAACUCAUCCCCAGGAGUUUGCUCCUGCAUAUUCAACAGCUCGCAGUCAAG	0.0747
GGUCACGUCUCAAUCAACUCAUCGCCAGGAGUUUCCUCCUGUUAUUUCAACAGCUCGCAGUCAAG	0.122
GGUCACGUCUCAAUCAACUCUAUCCCCAGGGAAAUCCCUGGCUUUCUCAACAGCUCGCAGUCAAG	-0.204
GGUCACGUCUCAAUCAACUCAUCUCCCAGGGAAAACCCUGGUAAAUUCAACAGCUCGCAGUCAAG	-0.132
